Assay results taken from the supplement of paper PMC12217912.
Some of the results follow. The full chains were built here from the parent and the listed change. Values near 0.05 are background.

B1: TEV protease; numbered along this chain (parent)
chain: MGESLFKGPRDYNPISSSICHLTNESDGHTTSLYGIGFGPFIITNKHLFRRNNGTLVVQSLHGVFKVKDTTTLQQHLVDGRDMIIIRMPKDFPPFPQKLKFREPQREERICLVTTNFQTKSMSSMVSDTSCTFPSGDGIFWKHWIQTKDGQCGSPLVSTRDGFIVGIHSASNFTNTNNYFTSVPKNFMELLTNQEAQQWVSGWRLNADSVLWGGHKVFMVKPEEPFQPVKEATQL

Variants of: B1
Test: raw area under fraction-flipped curve 0-4 h after induction (AUC4h, not background-subtracted), DNA-recorder readout of cleavage of the substrate (dimensionless); higher = more cleavage of the substrate by the protease variant
Conditions: temperature: 34 °C; time window: 0-4 h after rhamnose induction
Description: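 In vivo DNA recorder in E. coli TOP10(DE3) ΔrhaA at 34 °C. Each TEVp single-site mutant (parent TEVp 0) is paired with a single-site variant of the 7-mer TEVs (canonical ENLYFQ|S). The substrate sits between flexible linkers in a Bxb1-sfGFP-TEVs-SsrA fusion, so cleavage stabilises Bxb1 and speeds flipping of a recombination array, read by NGS. The value is the raw area under the fraction-flipped curve over 0-4 h after rhamnose induction (AUC4h), with ≥20 reads per time point. It is not background-subtracted; inactive controls average about 0.047.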
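Also: Bxb1 expression induced with 0.2% (w/v) L-rhamnose at OD600 near 0.5, cultures sampled hourly, flipped fraction per protease–substrate barcode pair counted by paired-end Illumina sequencing.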

| Variant | area with substrate ENAYFQS | area with substrate ENCYFQS | area with substrate ENDYFQS | area with substrate ENEYFQS | area with substrate ENFYFQS | area with substrate ENGYFQS | area with substrate ENHYFQS | area with substrate ENIYFQS | area with substrate ENNYFQS | area with substrate ENQYFQS | area with substrate ENRYFQS | area with substrate ENSYFQS | area with substrate ENVYFQS | area with substrate ENWYFQS | area with substrate ENYYFQS | area with substrate ENTYFQS | area with substrate ENKYFQS | area with substrate ENPYFQS | area with substrate ENMYFQS |
| --- | --- | --- | --- | --- | --- | --- | --- | --- | --- | --- | --- | --- | --- | --- | --- | --- | --- | --- | --- |
| I145Q | 0.0634 | 0.0596 | 0.0539 | 0.0592 | 0.0484 | 0.0544 | 0.0566 | 0.0724 | 0.0521 | 0.0299 | 0.0515 | 0.0456 | 0.0656 | 0.0474 | 0.0573 |  |  |  |  |
| C131D | 0.0699 |  |  |  |  |  | 0.0654 |  |  | 0.0655 |  |  | 0.0691 | 0.0403 |  | 0.0638 |  |  |  |
| Q146I | 0.069 |  | 0.0523 |  | 0.0491 | 0.0795 | 0.0674 |  |  | 0.0576 | 0.0373 | 0.0624 | 0.0616 |  |  |  | 0.0639 | 0.0598 |  |
| G150Q | 0.0495 |  | 0.0637 | 0.0582 | 0.0547 |  |  |  | 0.0748 | 0.059 | 0.0442 | 0.0783 |  |  | 0.0659 | 0.0635 |  | 0.0729 | 0.0631 |
| G150P | 0.0505 | 0.0569 | 0.0465 | 0.0568 | 0.068 | 0.0707 |  | 0.104 | 0.0626 | 0.0553 | 0.0534 | 0.0611 | 0.0627 |  | 0.0568 | 0.0593 | 0.0705 | 0.0746 | 0.0592 |
| H168C | 0.0631 |  |  | 0.106 | 0.056 | 0.056 |  |  |  | 0.0544 | 0.0672 |  | 0.0429 |  |  | 0.0417 |  | 0.0671 | 0.0804 |
| S154C | 0.0607 | 0.0768 | 0.0482 | 0.059 | 0.0657 | 0.0637 | 0.0529 |  | 0.0762 | 0.0462 | 0.0674 | 0.105 | 0.0789 |  | 0.0686 |  | 0.0617 |  | 0.0742 |
| S154R | 0.0558 | 0.0646 | 0.0674 | 0.057 | 0.075 | 0.0557 | 0.0629 | 0.0791 |  | 0.0597 | 0.0561 | 0.0582 | 0.0558 |  | 0.0666 | 0.0644 | 0.0672 | 0.0507 | 0.0645 |
| S154L | 0.0486 | 0.0773 |  |  | 0.0705 | 0.083 | 0.0387 | 0.162 | 0.0717 | 0.0688 |  | 0.0638 |  | 0.0667 |  | 0.0754 | 0.0491 |  | 0.0915 |
| S130P | 0.038 |  | 0.0399 |  | 0.0373 |  |  |  |  | 0.025 |  | 0.0607 | 0.0602 |  |  |  | 0.0469 |  |  |
| S130I | 0.0537 |  | 0.0289 |  |  | 0.0571 |  |  | 0.0633 | 0.065 |  | 0.0459 |  | 0.0386 | 0.0669 |  | 0.0583 | 0.0603 |  |
| S130W | 0.0749 | 0.0631 | 0.0614 | 0.0608 | 0.0542 | 0.0702 | 0.0308 | 0.07 | 0.0622 | 0.0575 | 0.0626 | 0.0624 | 0.0622 | 0.0573 |  |  |  |  | 0.0567 |
| F180G | 0.0503 | 0.0382 | 0.0543 |  |  |  |  |  |  | 0.0857 | 0.0309 | 0.0481 | 0.0508 |  | 0.0502 |  | 0.054 |  | 0.0485 |
| L156C | 0.0702 | 0.082 | 0.0338 |  | 0.0632 |  |  |  |  | 0.0595 |  | 0.0617 |  |  | 0.0681 | 0.075 |  |  | 0.0832 |
| T132Q | 0.0547 |  | 0.0621 | 0.0599 | 0.0667 | 0.0644 | 0.0656 | 0.0646 | 0.053 |  |  | 0.0611 | 0.0646 | 0.0652 | 0.0548 |  |  | 0.123 |  |
| G138V | 0.0144 | 0.0565 |  | 0.0355 | 0.08 | 0.048 | 0.0483 |  |  | 0.0498 |  | 0.0603 | 0.061 |  |  |  | 0.037 |  |  |
| D128V | 0.0548 | 0.0718 | 0.0645 | 0.0722 | 0.066 | 0.0498 | 0.0649 |  | 0.0933 | 0.059 | 0.0507 | 0.0687 | 0.0618 |  | 0.0682 | 0.0724 | 0.0632 | 0.0543 |  |
| S135V | 0.0523 | 0.0614 | 0.0584 | 0.0609 | 0.0581 | 0.0649 | 0.0617 |  | 0.0655 | 0.0556 |  | 0.0502 | 0.0537 |  |  | 0.0449 | 0.069 | 0.0693 | 0.0498 |
| S135G | 0.0603 | 0.0587 | 0.0696 | 0.0771 | 0.0634 | 0.0625 | 0.0749 | 0.0576 | 0.0651 | 0.0582 | 0.0577 | 0.0557 | 0.0619 |  | 0.0578 | 0.0517 |  | 0.0566 |  |
| S158D | 0.0472 |  | 0.064 |  |  | 0.0537 | 0.058 | 0.0907 |  | 0.0507 |  | 0.0604 | 0.0561 | 0.0155 |  | 0.0439 | 0.0636 | 0.0591 | 0.0831 |
| S158I | 0.0529 |  |  | 0.0564 | 0.0621 |  |  |  |  | 0.0462 |  | 0.0542 | 0.066 | 0.0421 |  | 0.049 |  |  |  |
| T147W | 0.0658 | 0.0607 | 0.12 | 0.0625 | 0.0603 | 0.0681 | 0.0626 | 0.062 |  | 0.0638 | 0.0651 | 0.0649 | 0.0627 |  |  | 0.0627 | 0.0615 | 0.0692 |  |
| T147I | 0.0564 | 0.0651 | 0.059 | 0.0469 | 0.0559 | 0.044 |  |  | 0.0586 | 0.0557 | 0.0528 | 0.0529 | 0.0544 |  |  | 0.0421 |  | 0.0731 | 0.0652 |
| F173M | 0.0684 | 0.0757 | 0.0689 | 0.0166 |  |  |  | 0.109 |  | 0.0693 |  | 0.09 | 0.0797 |  |  | 0.0566 | 0.0037 |  | 0.0785 |
| N175E | 0.0642 | 0.0469 | 0.0699 | 0.0612 | 0.0558 | 0.0511 | 0.0635 |  |  |  |  | 0.0696 | 0.0628 |  |  |  |  | 0.0674 |  |
| K142D | 0.0557 | 0.0667 | 0.0688 | 0.0593 | 0.0579 | 0.0368 | 0.0478 | 0.087 |  | 0.0555 |  | 0.0732 | 0.0884 |  | 0.0688 | 0.0705 | 0.078 | 0.0677 | 0.0541 |
| K142R | 0.0472 | 0.0655 | 0.0634 | 0.0656 |  |  | 0.0625 |  | 0.0459 | 0.0566 |  |  | 0.0757 |  |  | 0.0599 | 0.0754 |  |  |
| K142P | 0.0559 | 0.0647 | 0.0408 | 0.0512 | 0.0516 | 0.0599 |  | 0.0707 | 0.0521 | 0.0664 | 0.0529 | 0.0584 | 0.0674 |  | 0.0533 | 0.0538 | 0.0713 | 0.06 | 0.0712 |
